Read counts are not given, so values of variants with three or more changes are uncertain.

We go through 41 variants from the RNAGym collection of RNA variant scans (doi:10.7554/elife.90254).

The chains are these.
B1: OR4K15 (parent)
chain: GUUAACGGUCAUAGGCCAUGGAAACUAGGAGCACCAUUUCGCUGCCAGUGAAGAAAUGAACAAAGAAAAUCUGGGCCAGGCAGGCAUCAAAAGAAAUAGUCUUGCGCUCAACCAGAAAGUCUGUAAUCAUUUUAAGGGUA

The variants in the series derive from B1. Put plainly: self-cleavage, relative activity (ratio to wild type); higher = more cleavage; in vitro, sequencing; the parent is a self-cleaving ribozyme.
For GUUAACGGUCAUAGGCCAUGGAAACUAGGAGCACCAUUUCGCUGCCAGUGUAGAAAUGAACAAAGAAGAUCUGGGCCAGGCAGGCUUCAAGAGAAAUAGUCUUGCGCUCAACCAGAAAGUCUGUAAUCAUUUUAAGGGUA, the self-cleavage amounted to 1.36.

On to GUUAACGGUCAUAGGCCAUGGAAACUAGGAGCACCAUUUCGCUGCCAGUGUAGAAAUGAACAAAGAAAAUCUGGGCCAGGCAGGCAUCAAAAGAAAUAGUCUUGCGCACAACCGGAAAGUCUGUAAUCAUUUUAAGGGUA, for which the self-cleavage was found to be 0.01. In the case of GUUAACGGUCAUAGGCCAUGGAAACUAGGAGCACCAUUUCGCUGCCAGUGACGAAAUGAACAAGGAAAAUCUGGGCCAGGCAGGCAUCAAACGAAAUAGGCUUGCGCUCGACCAGAAAGUCUGUAAUCAUUUUAAGGGUA it was 0.07.

GUUAACGGUCAUAGGCCAUGGAAACUAGGAGCACCAUUUCGCUGCCAGUGUAGAAAUGAGCAAAGAAAAUCUGGGCCAGGCGGGCAUCAAAAGAAAUAGUCUUGCGCUCGACCAGAAAGUCUGUAAUCAUUUUAAGGGUA: the self-cleavage came to 0.05. For GUUAACGGUCAUAGGCCAUGGAAACUAGGAGCACCAUUUCGCUGCCAGUGUAGAAAUGAACAAAGAAAAUCUGGGCCAGGCAGGCAUCAAAAGAAAUAGUCUUGCGCUCAACCAGAAAGUCUGUAGUCAUUUUAAGGGAA, the self-cleavage was determined as 0.71. With GUUAACGGUCAUAGGCCAUGGAAACUAGGAGCACCAUUUCGCUGCCAGUGUAGAAAUGAACAAAGAAAGUCUGGGCCAGGCAGGCAUCAAGAGAAAUAGUCUUGCGCUCAACCAGAAAGUCUAUAAUCAUUUUAAGGGUA the figure was 0.42. With GUUAACGGUCAUAGGCCAUGGAAACUAGGAGCACCAUUUCGCUGCCAGUGGAGAAAUGAACAAAGAAAAUCUGGGCCAGGCAGGCAUCAAAAGAAAUAGUCUUGCGCUCAACCAGAAAGUCUGUAAACAUUUUAUGGGUA the figure was 1.44; with GUUAACGGUCAUAGGCCAUGGAAACUAGGAGCACCAUUUCGCUGCCAGUGUAGAAAUGAACAAGGAAAAUCUGGGCCAGGCAGGCAUCAAAAGAAAUAGUCUUGCGCUCAACCGGAAAGUCUGUAAUCAUUUUAAGGGUA, 0.13. In the case of GUUAACGGUCAUAGGCCAUGGAAACUAGGAGCACCAUUUCGCUGCCAGUGUAGAAAUGAACAAGGAAAGUCUGGGCCAGGCAGGCAUCAAAAGAAAUAGUCUUGCGCUCAACCAGAAAGUCUGUAAUCGUUUUAGGGGUA it was 0.17. GUUAACGGUCAUAGGCCAUGGAAACUAGGAGCACCAUUUCGCUGCCAGUGUAGAAAUGAACAAAGAAAAUCUGGGCCAGGCAGGCAUCAAAAGAAAUAGUCUUGCGCUCAUCCAGAAAGUCUGUAAUCACUUUAAGGGUA: the self-cleavage was determined as 0.03. In the case of GUUAACGGUCAUAGGCCAUGGAAACUAGGAGCACCAUUUCGCUGCCAGUGUAGAAAUGAACAAAGAAAAUCUGGGCCGGGCAGGCAUCAAAAGAAAUAGUCUUGCGCCCAACCAGAAAGUCUGUAACCAUUUUAAGGGUA it was 0.01; in that of GUUAACGGUCAUAGGCCAUGGAAACUAGGAGCACCAUUUCGCUGCCAGUGUAGAAAUGAACAAAGAGAAUCUGGGCCAGGCAGGCAUCAAAAGAAAUAGUCUUGCGCUCAACCAGAAAGUCUGUAAUCAUUCUAAGGGUA, 1.37; in that of GUUAACGGUCAUAGGCCAUGGAAACUAGGAGCACCAUUUCGCUGCCAGUGUAGAAAAGAACAAAGAAAAUCUGGGCCAGGCAGGCAUCAAAAGAAAUAGUCUUGCGCUCGACCAGAAAGUCUGUAGUCAUUUUAAGGGUA, 0.05. For GUUAACGGUCAUAGGCCAUGGAAACUAGGAGCACCAUUUCGCUGCCAGUGUAGAAAUGAACAAAGAAAAUCUGGGCCAGGCGGGCAUCAAAAGAAAUAGUCUUGCGCUCAGCCAGGAAGUCUGUAAUCAUUUUAAGGGUA, the self-cleavage worked out at 0.01. In the case of GUUAACGGUCAUAGGCCAUGGAAACUAGGAGCACCAUUUCGCUGCCAGUGACGAAAUGAACAAAGAAAAUCUGGGCCAGGCAGGCAUCGAAAGAAAUAGUCUCGCGCUCAGCCAGAAAGUCUGUAAGCAUUUUAAGGGUA it was 0.01; in that of GUUAACGGUCAUAGGCCAUGGAAACUAGGAGCACCAUUUCGCUGCCAGUGACGAAAUGAACAAAGAAAAUCUGGGCCAGGCAGGCAUCAAAAGAAAUAGUCUUGCGCCCAACUAGAAAGUCUGUAAUCAUUUUAAGGGUA, 0; in that of GUUAACGGUCAUAGGCCAUGGAAACUAGGAGCACCAUUUCGCUGCCAGUGUAGAAAAGAACAAAGAAAAUCUGUGCCAGGCAGGCAUCAAAAGAAAUGGUCUUGCGCUCAACCAGAAAGUCUGUAAUCAUUUUAAGGGUA, 0.06. As for GUUAACGGUCAUAGGCCAUGGAAACUAGGAGCACCAUUUCGCUGCCAGUGUGGAAAUGAGCAAAGAAAAUCUGGGCCAGGCAGGCAUCAAAAGAAAUAGUCUUGCGCUCAACCAGAAAGUCUGUAAUCAUUUUAAGGGUA, the self-cleavage turned out to be 0.34. With GUUAACGGUCAUAGGCCAUGGAAACUAGGAGCACCAUUUCGCUGCCAGUGUAGAAAUGAACAAAGAAAAUCUGGGCCAGGCAGGCGUCAAAAGAAAUAGUCUAGCGCUCAACCAGAAAGUCCGUAAUCAUUUUAAGAGUA, the self-cleavage is 0.64. With GUUAACGGUCAUAGGCCAUGGAAACUAGGAGCACCAUUUCGCUGCCAGUGUAGAAAUGAACAAAGAAAAUCUGGGCCGGGCAGGCAUCAAAAGAAGUAGUCUUGCGCUCAACCAGAAAGUCUGUAAUCAUUUUAAAGGUA the figure was 0.3. As to GUUAACGGUCAUAGGCCAUGGAAACUAGGAGCACCAUUUCGCUGCCAGUGUAGAAAUGAACAAAGAAAAUCUGGGCCAGGCAGGCAUCAAGAGAAAUAGUCUUGCGCUCAACCAGAAAGUCUGUAAUCAAUUUAAGGGUA, the self-cleavage was 1.14. GUUAACGGUCAUAGGCCAUGGAAACUAGGAGCACCAUUUCGCUGCCAGUGUAGAAAUGAACAAAGAAAAUCUGGGCCUGGCAGGCAUCAGAAGAAAUAGUCUUGCGCUCAACCAGAAAGUCUGUAAUCAUUUUGAGGGUA: the self-cleavage turned out to be 0.08.

As to GUUAACGGUCAUAGGCCAUGGAAACUAGGAGCACCAUUUCGCUGCCAGUGGAGAAAUGAACAAAGAAAAUCUGGGCCAGGCAGGCAUCAAAAGAAAUAGUCUCGCGCUCAACCUGAAAGUCUGUAAUCAUUUUAAGGGUA, the self-cleavage was determined as 0.03. In the case of GUUAACGGUCAUAGGCCAUGGAAACUAGGAGCACCAUUUCGCUGCCAGUGGAGAAAUGAACAAAGAAAAUCUGGGCCAGGCAGGCAUCAAAAGAAAUAGUCUCGCGCUCAACCGGAAAGUCUGUAAUCAUUUUAAGGGUA it was 0.2. In the case of GUUAACGGUCAUAGGCCAUGGAAACUAGGAGCACCAUUUCGCUGCCAGUGUAGAAAUGAACAAAGAAGAUCUGGGCCAGGCAGGCAUCAAAGGAAAUAGUCUUGCGCUCAACCAGGAAGACUGUAAUCAUUUUAAGGGUA, the self-cleavage was found to be 0.37. With GUUAACGGUCAUAGGCCAUGGAAACUAGGAGCACCAUUUCGCUGCCAGUGUAGAAAUGAACAAAGAAAAUCUGGGCCAGGCAGGCAUCAAAAGAAAUAGUCUUGCGCUCAACCAGAAAGUCUGCAAUCGUUUUAAGGGUA the figure was 0.37; with GUUAACGGUCAUAGGCCAUGGAAACUAGGAGCACCAUUUCGCUGCCAGUGUAGAAAUGAACAAAGAGAAUCUGGGCCAGGCAGGCAUCAAAAGAAAUAGUCUUGCGCUCAACCAGAAAGUCCGUAAUCAUUUUAAGGGUA, 1.59; with GUUAACGGUCAUAGGCCAUGGAAACUAGGAGCACCAUUUCGCUGCCAGUGGAGAAAUGAACAAAGAAAAUCUGGGCCAGGCAGGCAUCAAAAGAAAUAGUCUUGCGCUCAACCAGAAAGUCUGUAAUCAUUCUAGGGGUA, 0.74. In the case of GUUAACGGUCAUAGGCCAUGGAAACUAGGAGCACCAUUUCGCUGCCAGUGUAGAAAUGAACAAAGAAGAUCCGGGCCAGGCAGGCAUCAAAAGAAAUAGUCUUGCGCUCAACCAGAAAGUCUGUAAUCAUUUUAAGGGUA, the self-cleavage stood at 0.37.

Consider GUUAACGGUCAUAGGCCAUGGAAACUAGGAGCACCAUUUCGCUGCCAGUGUAGGAAUGAACAAAGAAAAUCUGGGCCUGGCAGGCAUCAAAAGAAAUAGUCUUGCGCUCAACCAGAAAGUCUGUAGUCAUUUUAAGGGUA, for which the self-cleavage was 0.1. In the case of GUUAACGGUCAUAGGCCAUGGAAACUAGGAGCACCAUUUCGCUGCCAGUGUAGAAAUGAACAAAGAAAAUCUGGGCCAGGCAGGCAUCAAAAGGAAUAGUCUUGCGCUCAACCAGAAAGUCCGUAAUCAUUUUAAGGGUA it was 1.52; in that of GUUAACGGUCAUAGGCCAUGGAAACUAGGAGCACCAUUUCGCUGCCAGUGUAGAAAUGAACAAAGAAAAUCUGGGCCAGGCAGGCAUCAAAAGAAAUAGUCUUGCGCUCAACCUUAAAGUCUGUAAUCAUUUUAAGGGUA, 0. With GUUAACGGUCAUAGGCCAUGGAAACUAGGAGCACCAUUUCGCUGCCAGUGUAGGAAUGGACAAAGAAAAUCUGGGCCAGGCAGGCAUCAAAAGAAAUAGUCUUGCGCUCAACCAGAAAGUCUGUAAUCAUUUUAAGGGUA the figure was 1.89; with GUUAACGGUCAUAGGCCAUGGAAACUAGGAGCACCAUUUCGCUGCCAGUGUAGAAAUGAACAAAGAAAAUCUGGGCCAGGCAGGCAUCAAAAGAAAUAGUCUUGCGCUCAGCCAGGAAGUCUGUAAUCAAUUUAAGGGUA, 0. For GUUAACGGUCAUAGGCCAUGGAAACUAGGAGCACCAUUUCGCUGCCAGUGGAGAAAUGAACAAAGAAAAUCUGGGCCAGGCAGGCAUCAAAAGAAAUAGUCUUGCGCACAACCAGAAAGUCUGUAAUCAUUCUAAGGGUA, the self-cleavage came to 0. In the case of GUUAACGGUCAUAGGCCAUGGAAACUAGGAGCACCAUUUCGCUGCCAGUGGAGAAAUGAACAAAGAAAAUCUGGGCCAGGCAGGCAUCAAAAGAAAUAGUCUUGCGCUCAACCAGAAAGUCCGUAGUCAUUUUAAGGGUA it was 1.43; in that of GUUAACGGUCAUAGGCCAUGGAAACUAGGAGCACCAUUUCGCUGCCAGUGUAGAAAUGAACAAAGAAAAUCUGGGCCAGGCAGGCAUCAAAAGAAAUAGUCUUGCGCUCAGCCAGAAGGUCUGUAAUCAUUUUAAGGGUA, 0; in that of GUUAACGGUCAUAGGCCAUGGAAACUAGGAGCACCAUUUCGCUGCCAGUGUAGAAAUGAACAAAGAAAAUCUGGGCCAGGCAGGCAUCAAAAGAAAUAGUCUUGCGCUCGACCAGAAAGUCUGCAAUCAUUUUAAGGGUA, 0.09. In the case of GUUAACGGUCAUAGGCCAUGGAAACUAGGAGCACCAUUUCGCUGCCAGUGUAGAAACGAACGAAGAAAAUCUGGGCCAGGCAGGCAUCAAAAGAAAUAGUCUUGCGCUCAACCAGAAAGUCUGUAAUCAUUUUAAGGGUA, the self-cleavage turned out to be 0.4. With GUUAACGGUCAUAGGCCAUGGAAACUAGGAGCACCAUUUCGCUGCCAGUGUAGAAAUGAACAAAGAAAAUCUGGACCAGGCAGGCUUCAAAAGAAAUAGUCUUGCGCUCAACCAGAAAGUCUGUAAUCAUUUUAAGGGUA, the self-cleavage turned out to be 0.04. With GUUAACGGUCAUAGGCCAUGGAAACUAGGAGCACCAUUUCGCUGCCAGUGUAGAAAUGAACAAAGAAAAUCCGGGCCAGGCAGGCAUCAAAAGAGAUAGUCUUGCGCUCAACCCGAAAGUCUGUAAUCACUUUAAGGGUA the figure was 0.01.
